Assay results reported in PubChem BioAssay AID2147 (National Center for Advancing Translational Sciences (NCATS), 2009).
In all, about 230,000 compounds went through this assay and about 3,600 (1.6%) were called active. The inconclusive results got no clear call from the source; some entries with a clear call stand among them for comparison. Calls come from the whole dose curve; as a rule, active = well fitted inhibition curve with a large enough effect (not every such curve was filed as active); inconclusive = small, poorly fitted or top-dose-only effect, or another doubt; inactive = no such curve, though single readings can be large or run the other way. Potencies of inconclusive entries are doubtful fits and often do not repeat.

Target: Lysine-specific demethylase 4E (Homo sapiens) (UniProt B2RXH2)
Assay: qHTS Assay for Inhibitors of Human Jumonji Domain Containing 2E (JMJD2E)
Settings: JMJD2E catalytic domain, FDH-coupled NADH fluorescence (FDH is formaldehyde dehydrogenase); series mostly up to 57.1 µM; activity change, negative = inhibition: at the top concentration
Note: nearly all actives have a fitted effect of over 50% in size.
Potency is the fitted concentration of half-maximal effect; tags give direction and shape of the fitted curve.
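Throughout, for activity change, negative = inhibition: 0% = wells with enzyme and -100% = buffer wells without enzyme.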

UniProt B2RXH2, sequence (B2RXH2 whole entry, looked up, the tested form may be a part): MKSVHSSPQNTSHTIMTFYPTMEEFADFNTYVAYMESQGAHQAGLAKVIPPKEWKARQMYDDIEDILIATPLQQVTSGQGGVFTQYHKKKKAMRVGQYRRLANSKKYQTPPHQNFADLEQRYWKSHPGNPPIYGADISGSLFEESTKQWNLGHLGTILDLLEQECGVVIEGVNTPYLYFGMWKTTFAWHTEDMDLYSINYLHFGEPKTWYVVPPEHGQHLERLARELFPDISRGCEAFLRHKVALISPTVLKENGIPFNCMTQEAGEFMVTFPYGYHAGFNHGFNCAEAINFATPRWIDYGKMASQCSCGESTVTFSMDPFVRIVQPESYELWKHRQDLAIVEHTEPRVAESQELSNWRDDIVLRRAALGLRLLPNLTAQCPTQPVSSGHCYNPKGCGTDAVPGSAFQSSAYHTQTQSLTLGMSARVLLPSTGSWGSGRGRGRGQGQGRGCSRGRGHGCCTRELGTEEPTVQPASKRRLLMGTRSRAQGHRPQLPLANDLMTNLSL

SMILES | Potency | activity change, negative = inhibition
O=C(O)c1ccccc1C(=O)Nc1ccc(-n2nccc2C(F)(F)F)cc1 | inconclusive: 31.6 µM [inhibitor, single point] | –
O=c1oc2ccccc2cc1-c1csc(Cc2nc(-c3ccc(Br)cc3)cs2)n1 | inconclusive: 3.16 µM [inhibitor, full curve] | –
CCCCCc1c2c(cc(O)c1C(=O)O)OC(=O)c1cc(C(=O)CCCC)c(OC)cc1O2 | – | inactive: 8.88%
Fc1ccc(-c2cc(C(F)(F)F)nc(NCC3CCCO3)n2)cc1 (stereo not given) | inconclusive: 35.5 µM [inhibitor, partial curve] | –
CCCCCC(O)CCCC(=O)O (stereo not given) | – | inactive: -1.7%
CCCSC1=N/C(=C/c2ccsc2)C(=O)N1c1ccccc1 | inconclusive: 39.8 µM [inhibitor, single point] | –
C/C(=N\NC(=O)CSCc1ccc([N+](=O)[O-])cc1)c1cccc(Br)c1 | – | inactive: 9.59%
CCN(CC(=O)Nc1ccc(C)c(F)c1)CC(=O)NC(C)C | – | inactive: -4.26%
CCOC(=O)C1=C(C)NC(C)=C(C(=O)OCC)C1C(=O)OCC(=O)N1c2ccccc2CC1C (stereo not given) | inconclusive: 28.2 µM [inhibitor, single point] | –
Cc1oc2c(O)c(O)ccc2c(=O)c1-c1cnn(-c2ccccc2)c1 | – | inactive: 5.54%
CC(=O)c1c(C)oc2c1cc(O)c1ccccc12 | – | inactive: 10.6%
CCOC(=O)c1ccc(CNC(=O)C2CCCCC2C(=O)OCC(F)(F)F)o1 (stereo not given) | – | inactive: 3.26%
CC(C)(C)C(=O)NC(=S)Nc1ccccc1F | inconclusive: 25.1 µM [inhibitor, partial curve] | –
O=C(N/N=C\c1cc(Br)c(Br)o1)c1cncc(Br)c1 | – | inactive: -0.981%
O=C(Nc1ccc2oc(-c3ccc4ccccc4c3)nc2c1)c1ccc2c(c1)OCCO2 | inconclusive: 8.91 µM [inhibitor, partial curve] | –
N#Cc1ccc(CSc2nnc(NC(=O)c3ccc4ncsc4c3)s2)cc1 | inconclusive: 15.8 µM [inhibitor, partial curve] | –
Cc1ccc(NC(=O)Cn2nnc(-c3ccccc3NC(=O)c3cccs3)n2)cc1 | inconclusive: 28.2 µM [inhibitor, partial curve] | –
O=c1c(O)cc(C2Oc3cc(O)cc(O)c3CC2O)cc2c(C3Oc4cc(O)cc(O)c4CC3O)cc(O)c(O)c12 (stereo not given) | active: 25.1 µM | –
O=c1cc2[nH]c3ccccc3c(=O)n2nc1-c1ccccc1 | inconclusive: 31.6 µM [inhibitor, partial curve] | –
C1CCC(c2nn3c(-c4n[nH]c5c4CCC5)nnc3s2)CC1 | – | inactive: 8.01%
O=C(CN1CCN(C(=O)c2ccco2)CC1)Nc1ccc2c(c1)OCCO2 | – | inactive: -1.23%
Fc1ccc(-n2c(-c3cccs3)nc3nc4ccccc4nc32)cc1 | inconclusive: 4.47 µM [inhibitor, full curve] | –
Cn1ncc2c(NNC(=O)c3ccccc3Cl)ncnc21 | inconclusive: 39.8 µM [inhibitor, single point] | –

SMILES | Potency | activity change, negative = inhibition
CC(C)Nc1nc(Oc2cccc(Cl)c2Cl)cc(C(F)(F)F)n1 | inconclusive: 31.6 µM [inhibitor, single point] | –
CCC(C)OC(=O)c1[nH]c2c(c1C)C(=O)CC(c1ccc(N(C)C)cc1)C2 (stereo not given) | – | inactive: -0.429%
COCc1nnc(NC(=O)c2ccc(S(=O)(=O)N3CCCc4ccccc43)cc2)o1 | inconclusive: 39.8 µM [inhibitor, single point] | –
CN(C)/C=C1/Sc2ccccc2C1=O | inconclusive: 35.5 µM [inhibitor, single point] | –
O=C(/C=C/c1ccc2c(c1)OCO2)Nc1nc(-c2ccccc2)cs1 | inconclusive: 28.2 µM [inhibitor, partial curve] | –
CCOC(=O)c1cnc2ccc(C(=O)OC)cc2c1NCc1ccco1 | inconclusive: 25.1 µM [inhibitor, single point] | –
CCn1c(=N)c(S(=O)(=O)c2ccc(Cl)cc2)cc2c(=O)n3ccccc3nc21 | inconclusive: 0.631 µM [inhibitor, full curve, poor fit] | –
COCc1cc(C)nc(Nc2ccc(C)cc2C)c1C#N | inconclusive: 39.8 µM [inhibitor, single point] | –
C[C@H](Cc1ccc(O)c(O)c1)[C@@H](C)Cc1ccc(O)c(O)c1 | active: 14.1 µM | –
O=C(O)c1ccc(N/N=C/c2ccc(OC(=O)c3cccc(Cl)c3)cc2)cc1 | inconclusive: 20 µM [inhibitor, partial curve] | –
CCN1CC=C2C(C#N)=C(N)C(C#N)(C#N)C(c3cc(Cl)ccc3Cl)C2C1 (stereo not given) | inconclusive: 31.6 µM [inhibitor, partial curve] | –
CC(=O)NC(=S)Nc1ccc2oc(-c3cc(F)c(F)cc3Cl)nc2c1 | inconclusive: 17.8 µM [inhibitor, partial curve] | –
C=CCNC(=O)c1ccc2c3n(nc2c1)-c1ccc(C)cc1CO3 | inconclusive: 25.1 µM [inhibitor, partial curve] | –
COc1ccc(/C=C(/NC(=O)c2ccccc2)C(=O)N/N=C/c2sccc2C)cc1 | inconclusive: 35.5 µM [inhibitor, single point] | –
COC(=O)CSc1ncccc1-c1nc2ccccc2[nH]1 | inconclusive: 28.2 µM [inhibitor, single point] | –
Cc1ccc(C(=O)N2CCN(Cc3ccc4c(c3)OCO4)CC2)cc1[N+](=O)[O-] | – | inactive: -4.51%
O=C(C1=C[C@@H]2[C@H]3C(=O)N(c4ccc(Cl)cc4)C(=O)[C@H]3[C@@H](C(=O)c3ccc(Cl)cc3)N2C=C1)c1ccccc1 | – | inactive: 5.81%
C=CCn1c(SCC(=O)Nc2sccc2C(N)=O)nc2sc(C)c(C)c2c1=O | inconclusive: 35.5 µM [inhibitor, single point] | –
COc1ccccc1N(C)S(=O)(=O)c1ccc(C(=O)OCC(=O)NCCC2=CCCCC2)cc1 | – | inactive: -2.12%
COc1ccc2c(=O)cc(-c3ccc(O)cc3)oc2c1 | inconclusive: 31.6 µM [inhibitor, partial curve] | –
Cc1nc(NC2CCCCC2)c2nc(-c3ccccc3)n(CCN3CCCCC3)c2n1 | inconclusive: 28.2 µM [inhibitor, partial curve] | –
Cc1ccc(SCC(=O)N2CCN(c3ccccn3)CC2)cc1 | inconclusive: 35.5 µM [inhibitor, single point] | –
